# Measured values as given in the supplement of paper PMC11417369.
# ± gives the standard deviation of the averaged measurements. This is one part of the list.
# Test system: PfAP2-LT AP2 domain (GST-tagged)
# Assay: gcPBM binding intensity (ln(normalized median fluorescence intensity)); higher = stronger DNA binding
# Outline: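 DNA-binding domains from P. falciparum, fused to GST and produced in E. coli, were put on an Agilent 4 × 180k double-stranded probe array for 1 h in 1× PBS holding 1% milk, 0.2 mg/ml BSA, 0.5% salmon testes DNA and 0.03% Triton X-100. Probes were primer-extended, 36 bp long and drawn from intergenic genomic regions, with negative controls included. After Alexa488 anti-GST antibody detection and a 488 nm scan, binding intensity was set as the highest Masliner-normalised natural-log median intensity across replicate spots of either probe orientation.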
row,Sequence,gcPBM binding intensity (ln)
1,ATTAATAATCGAAAGGTGCACTTTGATTTGATAACA,8.79 ± 0.49
2,TAATTAAAATTATTTATAAATTAGTATATTTCTATA [CACACA_negctrl_site663],8.27 ± 0.57
3,TTATTATTTTATCGTAGTACACCTAAATTATAAAAC [XGTACX_site5251],8.46 ± 0.46
4,TTAGTAAATACATTTGCACACATTATTTTTTAACAT [CACACA_site5448],9.14 ± 0.45
5,TTTCAAAATTTTTATTTTAAATAAACATTTATAAAA [CACACA_negctrl_site1588],7.91 ± 0.47
6,ATTTATTTATTTATATGTACTTAAATGAAAGGAATA [XGTACX_site6024],8.31 ± 0.3
7,ATATGGCACATATGTACACACGTATAGATAATATTA [CACACA_site5162],9.23 ± 0.45
8,CCGATATAATGGAAAACACACAAAAGATATATATAT [CACACA_site2683],9.2 ± 0.42
9,ACATACATTTTTAAATGTACATATATATATATATAT [XGTACX_site6751],9.525 ± 0.078
10,AATATTATATGGACGTGTCCACATAAACCTATATAT [XGTACX_site2053],8.87 ± 0.42
11,GGAAATATAAAATCATGTACATATGTATATATAATT [XGTACX_site5491],8.97 ± 0.5
12,ATGAATATATATATTTGTACATATGTATATATATAT [XGTACX_site7527],8.91 ± 0.36
13,TATATATTTTTTTCATGTACTTATTATATATATATA [XGTACX_site5321],8.79 ± 0.44
14,AGTATAGATGTATACACACACCAAACGTTAAAAAAA [CACACA_site7443],9.39 ± 0.51
15,TATCATCATGTATGTACACACATACAGATATTATGT [CACACA_site4888],9.23 ± 0.42
16,AAATACAAAATTGTTACACACATATTAATTATGACA [CACACA_site476],8.87 ± 0.4
17,TATATTTTAAAATTATGTACATATATAGATAAATGT [XGTACX_site1349],8.57 ± 0.43
18,ATATAAATATAGTGTGCACACACATAATATATATAT [CACACA_site8713],9.6 ± 0.28
19,ATATATATATATAATACACACATCATAAAATATGTA [CACACA_site2518],9.06 ± 0.35

row,Sequence,gcPBM binding intensity (ln)
1,AAAATAAATTGTGAAGGTACACAAATTATTATGTGG [XGTACX_site4196],8.85 ± 0.47
2,TCGATATATAGACACACACACTTTTAATAATTAAAT [CACACA_site7726],9.37 ± 0.38
3,TACAAACAGACATATACACACAAAAAAAAAATAAAA [CACACA_site2562],9.16 ± 0.43
4,TTATGCAGATAAAAGAGTACATATTCGTTACATACA [XGTACX_site2849],8.77 ± 0.43
5,AATCATATTTAGATTACACACAGTTTAAATATTTTA [CACACA_site1263],8.64 ± 0.4
6,TATATATATATATATATATATATATATATAATATTA [XGTACX_negctrl_site558],9.245 ± 0.035
7,TATTTAAATGGATGCACACATGCATTAAATAAAATA [CACACA_site3433],8.81 ± 0.45
8,TGTAATGTTTACAACACACAAATTATAAATACAAAA [CACACA_site5047],8.87 ± 0.44
9,CTATATCATTTTCTAGCACACACATTGTTATTACCT [CACACA_site8204],9.48 ± 0.44
10,GAATATAAACCTATTACACACATCTATATGTACATT [CACACA_site1914],9.19 ± 0.44
11,TTTTTTATGCTAACTTCTTTTTCCTTATAAAATTGG [TGCATGCA_negctrl_site598],8.44 ± 0.54
12,ATTTTTTTTATTATTACACACATATAACAAAAAAAT [CACACA_site6934],8.69 ± 0.38
13,TATTTATAAATGAACACACACGCAATTTGAATCGAA [CACACA_site3371],9.23 ± 0.3
14,ATATATATATTATATGCACACTTATATTTCATTAGA [CACACA_site5439],8.8 ± 0.45
15,TTTTTATATTTCAACATATCACAATTTTATATATCT [CACACA_negctrl_site178],8.63 ± 0.5
16,AACACATACAGATATGCACACATTTTATTCCATTAT [CACACA_site5565],9.25 ± 0.3
17,TAAATATTAACAATCGCACACATATTATTTTTCCAA [CACACA_site1626],8.91 ± 0.32
18,GAATATATATTCATATGTACACAATTTATGTATTAT [XGTACX_site4719],8.96 ± 0.33
19,AAGGTAAACAGACACACACACATACAAAAAAAAAAA [CACACA_site3768],9.84 ± 0.63

row,Sequence,gcPBM binding intensity (ln)
1,ATAATTCTTTTACTGTGTACATATTATCACTTATTT [XGTACX_site2456],9.12 ± 0.47
2,CATTATGTTGTAAATACACACATACAGATACATACA [CACACA_site4565],9.16 ± 0.36
3,TTTTTTGGTTTTCATGCACACAATTTATAAATCTAT [CACACA_site3106],9 ± 0.45
4,ATATGCGTTTGCAAATGTACATATTATTTATATATA [XGTACX_site7128],8.8 ± 0.34
5,TAAAGGCAAACAAACACACACACATAAATACAGATA [CACACA_site5204],9.77 ± 0.3
6,TGGAAACAATGACACACACACAAAAAAAAAAAAAAA [CACACA_site7494],9.44 ± 0.49
7,TTTTGTTTTTGTAGAGTGCATAAAGAAGATATGTAT,8.47 ± 0.37
8,TATAAATACTTAGAAACACACAAAAATATTTTATAA [CACACA_site7259],8.64 ± 0.47
9,ATAATAATATTTCTATGTACTTATTTTATGTATTAG [XGTACX_site1747],8.8 ± 0.49
10,TTATCTCTACAAAGTGCACACACGTAAAAACATATA [CACACA_site3957],9.09 ± 0.35
11,GTAGGGGAAAAAAAAACACACAAAAAACAACAGATC [CACACA_site1187],9.44 ± 0.56
12,TGTAATTGTTTAAAGGGTACATATATCAGATGTCTT [XGTACX_site5877],8.7 ± 0.4
13,AATACCATAATCAATGCACACATAACAAAATATTAT [CACACA_site8873],9.32 ± 0.46
14,TACGAAAAAAAAAAAAAAAAAAAAAAACACAAAAAA [CACACA_negctrl_site1643],8.44 ± 0.63
15,TTTTAATATTTTAAGAGTACAGAAATATATAATATG [XGTACX_site4955],8.22 ± 0.44
16,CATATAAATATATATACACACACACCGTAATACATA [CACACA_site9158],9.8 ± 0.26
17,ATTTTATAACATTCATGTACACATTTCATTTATTTG [XGTACX_site3028],8.95 ± 0.49
18,AGAGACACTTTTTATTGTACAAGAGGAGGTTACCTT [XGTACX_site8768],8.63 ± 0.35
19,TTTTTATATTTTATAGTGCAAAAACTTACATAAAAT,8.37 ± 0.5
